At least one peptide structure holds a part that was inferred or is arguable (an end, a ring closure or a residue). At least one structure is not confirmed: it was looked up by name or label, or the drawing left a doubt.
Tests used:
[1] = test system: mouse model of obesity; assay: In vivo efficacy test in mouse model of obesity; details: high-fat diet obese mice, SC Q3d for 22 days; 10 nmol/kg (Semaglutide 30 nmol/kg)
Text: To study the weight-lowering effect of the series of polypeptides of the present application in animal model of obesity, and to compare them with the marketed counterparts, Tirzepatide and Semaglutide. Mouse model of obesity was obtained by induction with high-fat diet following the reference literature (MOLECULAR METABOLISM, 18 (2018), P3-14). The specific experimental procedure was as follows: the experimental mice were fed with high-fat diet (Research Diet D12492) for 13 weeks. […] These findings indicated the successful establishment of animal models. The test animals were divided into groups. An appropriate amount of the test samples were added into 20 mM sodium citrate buffer following the experimental protocol, and the mixture was vortexed at room temperature to obtain clear solutions of varying concentrations. The obtained solutions were frozen for further use. During the experiment, animals in the model group and the dosing group were administered by means of subcutaneous injection on the outer thighs. The dosing regimen was once every 3 days […]), for a total period of 22 days. Details were as follows. [table] […] After completing the entire dosing test cycle, the test mice were weighed, and the results were shown below.

[2] = target: T1, GLP-1R (Homo sapiens, UniProt P43220); assay: In vitro GLP-1R agonistic activity test (cAMP kit); format: cell-based; details: ratio of EC50 (+) 1% HSA to (−) 1% HSA
T1 construct: host or cells: HEK293
Method: The cell lines were constructed by Wuxi […] (Shanghai) Co., Ltd. See details in Table 1 below. [table] [table] [table] The test compounds were diluted at a 4-fold dilution factor in 10 points, starting from an initial concentration of 30 μM. The dilution was conducted by Bravo. • 1) 100 nL of compounds were transferred to an OptiPlate-384 plate by Echo. • 2) The OptiPlate-384 plate was centrifuged at 1000 rpm for 5 s. • 1) A GLP-1R/GIPR cell cryovial was placed in warm water at 37° C. for rapid thawing. • 2) The cell suspension was transferred into a 15 mL Transfer centrifugal tube and rinsed with 10 mL of HBSS gently. • 3) The centrifugal tube was centrifuged at 1000 rpm at room temperature for 1 min. • 4) The supernatant was discarded. • 5) The bottom cells were gently dispersed, then gently rinsed with 10 mL of HBSS, the centrifugal tube was centrifuged to settle the cells, and finally the cells were resuspended in an experimental buffer. • 6) Cell density and viability were measured by Vi-cell. • 7) The GLP-1R/GIPR cells were diluted with the experimental buffer to a concentration of 2.0*10^5/mL. • 8) 100 nL of the diluted cell suspension was transferred into the OptiPlate-384 plate. • 9) Incubation was performed at room temperature for 30 min. • 1) 10 μL of 800 nM gradient diluted cAMP standard was added into the empty wells of the OptiPlate-384 plate. • 2) 10 μL of cAMP assay reagent was added. • 3) The OptiPlate-384 plate was covered with TopSeal-A film and incubated at room temperature for 60 min. • 4) The TopSeal-A film was removed, and readout was performed on En Vision.

[3] = target: T2, GIPR (Homo sapiens, UniProt P48546); assay: In vitro GIPR agonistic activity test (cAMP kit); format: cell-based; details: ratio of EC50 (+) 1% HSA to (−) 1% HSA
T2 construct: host or cells: CHO
T2 sequence (P48546 22-466): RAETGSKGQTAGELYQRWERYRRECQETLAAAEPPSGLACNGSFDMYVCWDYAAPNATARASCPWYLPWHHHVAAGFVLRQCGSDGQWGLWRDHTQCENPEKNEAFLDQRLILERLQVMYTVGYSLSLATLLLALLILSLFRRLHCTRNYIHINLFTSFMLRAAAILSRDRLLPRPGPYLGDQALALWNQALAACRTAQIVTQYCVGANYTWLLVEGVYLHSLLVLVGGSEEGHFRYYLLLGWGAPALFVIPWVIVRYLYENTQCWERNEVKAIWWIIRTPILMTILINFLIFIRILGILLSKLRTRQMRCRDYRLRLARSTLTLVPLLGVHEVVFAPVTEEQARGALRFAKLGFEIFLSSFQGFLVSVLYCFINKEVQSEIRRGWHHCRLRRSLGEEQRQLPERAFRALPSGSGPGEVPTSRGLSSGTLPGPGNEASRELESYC
Method: The cell lines were constructed by Wuxi […] (Shanghai) Co., Ltd. See details in Table 1 below. […] The test compounds were diluted at a 4-fold dilution factor in 10 points, starting from an initial concentration of 30 μM.

[4] = test system: Db/db (Lepr leptin receptor deficient) mice; assay: In vivo efficacy test in mouse model of diabetes; details: for Fasting blood glucose / Change rate of glycosylated hemoglobin: db/db mice; for Change rate of glycosylated hemoglobin: “−” indicates decrease
Text: To study the efficacy of the series of polypeptides of the present application in animal model of diabetes, and to compare them with the marketed counterpart Tirzepatide as reported in the literature (MOLECULAR METABOLISM, 18 (2018), P3-14). The glucose-lowering effect of Tirzepatide is much better than that of Semaglutide, and thus Semaglutide was not included in this experiment for comparison. Db/db (Lepr leptin receptor deficient) mice have typical clinical symptoms of diabetes such as extreme obesity, hyperphagia, thirst, and polyuria, and they are ideal animal model of type II diabetes. […] The test animals were divided into groups. An appropriate amount of the test samples were added into 20 mM sodium citrate buffer following the experimental protocol, and the mixture was vortexed at room temperature to obtain clear solutions of varying concentrations. The obtained solutions were frozen for further use. During the experiment, animals in the normal control group, the model group and the dosing group were administered by means of subcutaneous injection on the outer thighs. The dosing regimen was once a day (Qd), for a total period of 4 weeks. Details were as follows: [table] […] The fasting blood glucose level and the change rate of glycosylated hemoglobin level in the test mice were dynamically monitored during the experiment.

T1 sequence (P43220 24-463, species assumed): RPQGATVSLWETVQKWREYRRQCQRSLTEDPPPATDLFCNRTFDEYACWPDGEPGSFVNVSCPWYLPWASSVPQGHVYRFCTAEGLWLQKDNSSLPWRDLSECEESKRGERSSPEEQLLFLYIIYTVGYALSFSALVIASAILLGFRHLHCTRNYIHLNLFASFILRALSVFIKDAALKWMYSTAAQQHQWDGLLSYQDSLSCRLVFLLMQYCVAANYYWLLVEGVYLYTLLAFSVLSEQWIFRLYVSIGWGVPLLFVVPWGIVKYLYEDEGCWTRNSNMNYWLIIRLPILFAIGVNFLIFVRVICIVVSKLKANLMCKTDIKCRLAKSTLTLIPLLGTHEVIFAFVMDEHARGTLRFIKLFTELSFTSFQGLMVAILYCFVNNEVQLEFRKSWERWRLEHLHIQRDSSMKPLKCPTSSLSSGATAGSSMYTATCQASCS

## CC[C@H](C)[C@H](NC(=O)[C@H](CC(C)C)NC(=O)[C@H](Cc1c[nH]c2ccccc12)NC(=O)[C@@H]1CCCCNC(=O)CN(C(=O)COCCOCCNC(=O)COCCOCCNC(=O)CC[C@H](NC(=O)CCCCCCCCCCCCCCCCCCC(=O)O)C(=O)O)CC(=O)NCCCC[C@H](NC(=O)[C@H](CCC(N)=O)NC(=O)[C@H](C)NC(=O)[C@@H](NC(=O)[C@H](CCCCN)NC(=O)[C@H](CC(=O)O)NC(=O)[C@H](CC(C)C)NC(=O)C(C)(C)NC(=O)[C@@H](NC(=O)[C@H](CO)NC(=O)[C@H](Cc2ccc(O)cc2)NC(=O)[C@H](CC(=O)O)NC(=O)[C@H](CO)NC(=O)[C@@H](NC(=O)[C@H](Cc2ccccc2)NC(=O)[C@@H](NC(=O)CNC(=O)[C@H](CCC(=O)O)NC(=O)C(C)(C)NC(=O)[C@@H](N)Cc2ccc(O)cc2)[C@@H](C)O)[C@@H](C)O)[C@@H](C)CC)[C@@H](C)CC)C(=O)N[C@@H](C)C(=O)N[C@@H](Cc2ccccc2)C(=O)N[C@@H](C(C)C)C(=O)N1)C(=O)N[C@@H](C)C(=O)NCC(=O)NCC(=O)N1CCC[C@H]1C(=O)N[C@@H](CO)C(=O)N[C@@H](CO)C(=O)NCC(=O)N[C@@H](C)C(=O)N1CCC[C@H]1C(=O)N1CCC[C@H]1C(=O)N1CCC[C@H]1C(=O)N[C@@H](CO)C(N)=O [WX-001]
[1]
  Weight change rate: −9.35%
[2]
  Agonistic activity on GLP-1R Ratio: 278.6
[3]
  Agonistic activity on GIPR Ratio: 49.3

## CC[C@H](C)[C@H](NC(=O)[C@H](CC(C)C)NC(=O)[C@H](Cc1c[nH]c2ccccc12)NC(=O)[C@@H]1CCCCNC(=O)CN(C(=O)COCCOCCNC(=O)COCCOCCNC(=O)CC[C@H](NC(=O)CCCCCCCCCCCCCCCCCCC(=O)O)C(=O)O)CC(=O)NCCCC[C@H](NC(=O)[C@H](CCC(N)=O)NC(=O)[C@H](C)NC(=O)[C@@H](NC(=O)[C@H](CCCCN)NC(=O)[C@H](CC(=O)O)NC(=O)[C@H](CC(C)C)NC(=O)C(C)(C)NC(=O)[C@@H](NC(=O)[C@H](CO)NC(=O)[C@H](Cc2ccc(O)cc2)NC(=O)[C@H](CC(=O)O)NC(=O)[C@H](CO)NC(=O)[C@@H](NC(=O)[C@H](Cc2ccccc2)NC(=O)[C@@H](NC(=O)CNC(=O)[C@H](CCC(=O)O)NC(=O)C(C)(C)NC(=O)[C@@H](N)Cc2ccc(O)cc2)[C@@H](C)O)[C@@H](C)O)[C@@H](C)CC)[C@@H](C)CC)C(=O)N[C@@H](C)C(=O)N[C@@H](Cc2ccccc2)C(=O)N[C@@H](C(C)C)C(=O)N1)C(=O)N[C@@H](C)C(=O)NCC(=O)NCC(=O)N1CCC[C@H]1C(=O)N[C@@H](CO)C(=O)N[C@@H](CO)C(=O)NCC(=O)N[C@@H](C)C(=O)N1CCC[C@H]1C(=O)N1CCC[C@H]1C(=O)N1CCC[C@H]1C(=O)N[C@@H](CO)C(N)=O [WX-004]
[2]
  Agonistic activity on GLP-1R Ratio: 45
[3]
  Agonistic activity on GIPR Ratio: 16

## CC[C@H](C)[C@H](NC(=O)[C@H](CC(C)C)NC(=O)[C@H](Cc1c[nH]c2ccccc12)NC(=O)[C@H](CCC(=O)O)NC(=O)[C@@H](NC(=O)[C@H](Cc1ccccc1)NC(=O)[C@H](CCC(=O)O)NC(=O)[C@@H]1CCCCNC(=O)CN(C(=O)COCCOCCNC(=O)COCCOCCNC(=O)CC[C@H](NC(=O)CCCCCCCCCCCCCCCCCCC(=O)O)C(=O)O)CC(=O)NCCCC[C@H](NC(=O)[C@H](CCCCN)NC(=O)[C@H](CC(=O)O)NC(=O)[C@H](CC(C)C)NC(=O)C(C)(C)NC(=O)[C@@H](NC(=O)[C@H](CO)NC(=O)[C@H](Cc2ccc(O)cc2)NC(=O)[C@H](CC(=O)O)NC(=O)[C@H](CO)NC(=O)[C@@H](NC(=O)[C@H](Cc2ccccc2)NC(=O)[C@@H](NC(=O)CNC(=O)[C@H](CCC(=O)O)NC(=O)C(C)(C)NC(=O)[C@@H](N)Cc2ccc(O)cc2)[C@@H](C)O)[C@@H](C)O)[C@@H](C)CC)C(=O)N[C@@H](C)C(=O)N[C@@H](CCC(N)=O)C(=O)N1)C(C)C)C(=O)N[C@@H](C)C(=O)NCC(=O)NCC(=O)N1CCC[C@H]1C(=O)N[C@@H](CO)C(=O)N[C@@H](CO)C(=O)NCC(=O)N[C@@H](C)C(=O)N1CCC[C@H]1C(=O)N1CCC[C@H]1C(=O)N1CCC[C@H]1C(=O)N[C@@H](CO)C(N)=O [WX-009]
[4]; Day 0, 5 nmol/kg SC Qd
  Fasting blood glucose: 26.4 ± 1.2 mmol/L
[4]; Day 7, 5 nmol/kg SC Qd
  Fasting blood glucose: 11.8 ± 1.8 mmol/L
[4]; Day 14, 5 nmol/kg SC Qd
  Fasting blood glucose: 12.6 ± 2.2 mmol/L
  Change rate of glycosylated hemoglobin: −25.3 ± 3.2%
[4]; Day 21, 5 nmol/kg SC Qd
  Fasting blood glucose: 13.6 ± 1.7 mmol/L
  Change rate of glycosylated hemoglobin: −24.8 ± 3.9%
[4]; Day 29, 5 nmol/kg SC Qd
  Change rate of glycosylated hemoglobin: −26.4 ± 5.9%
[4]; mouse model of diabetes
  Glucose-lowering effect (in words): good glucose-lowering effect
  Lowering the fasting blood glucose level, comparison (in words): superior to Tirzepatide
  Lowering the glycosylated hemoglobin level, comparison (in words): superior to Tirzepatide
  Overall glucose-lowering effect, comparison (in words): significantly better glucose-lowering effect than Tirzepatide

## CC[C@H](C)[C@H](NC(=O)[C@H](CC(C)C)NC(=O)[C@H](Cc1c[nH]c2ccccc12)NC(=O)[C@@H]1CCCCNC(=O)CN(C(=O)COCCOCCNC(=O)COCCOCCNC(=O)CC[C@H](NC(=O)CCCCCCCCCCCCCCCCCCC(=O)O)C(=O)O)CC(=O)NCCCC[C@H](NC(=O)[C@H](CCC(N)=O)NC(=O)[C@H](C)NC(=O)[C@@H](NC(=O)[C@H](CCCCN)NC(=O)[C@H](CC(=O)O)NC(=O)[C@H](CC(C)C)NC(=O)C(C)(C)NC(=O)[C@@H](NC(=O)[C@H](CO)NC(=O)[C@H](Cc2ccc(O)cc2)NC(=O)[C@H](CC(=O)O)NC(=O)[C@H](CO)NC(=O)[C@@H](NC(=O)[C@H](Cc2ccccc2)NC(=O)[C@@H](NC(=O)CNC(=O)[C@H](CCC(=O)O)NC(=O)C(C)(C)NC(=O)[C@@H](N)Cc2ccc(O)cc2)[C@@H](C)O)[C@@H](C)O)[C@@H](C)CC)[C@@H](C)CC)C(=O)N[C@@H](CCC(=O)O)C(=O)N[C@@H](Cc2ccccc2)C(=O)N[C@@H](C(C)C)C(=O)N1)C(=O)N[C@@H](C)C(=O)NCC(=O)NCC(=O)N1CCC[C@H]1C(=O)N[C@@H](CO)C(=O)N[C@@H](CO)C(=O)NCC(=O)N[C@@H](C)C(=O)N1CCC[C@H]1C(=O)N1CCC[C@H]1C(=O)N1CCC[C@H]1C(=O)N[C@@H](CO)C(N)=O [WX-002]
[2]
  Agonistic activity on GLP-1R Ratio: 165
[3]
  Agonistic activity on GIPR Ratio: 29

— patent US20260055142A1, “PHARMACEUTICAL USE OF POLYPEPTIDE IN PREPARATION OF DRUGS FOR TREATING AND/OR PREVENTING DIABETES AND OBESITY AND RELATED DISEASES THEREOF” (GUANGDONG RAYNOVENT BIOTECH CO., LTD., priority 2022, published 2026)
